Test results: PubChem BioAssay AID463173 (ICCB-Longwood Screening Facility, Harvard Medical School, 2010)
Hit rate of the full screen: of about 52,000 compounds, about 1,700 (3.3%) were called active. Rule as the data show it: active = survival mostly below about 52% (no sharp cut-off); inactive = mostly above about 56%. The list shows a part of the results.

Each compound was assayed on Wild type (assay: growth inhibition of S. aureus wild type versus tarO mutant, primary screen, teichoic acid synthesis inhibitors, RN4220, OD600 (AID 463173)). Conditions: S. aureus RN4220 wild type/DeltatarO growth, OD600, 18 h, hits give low values, screened at 18.75 µg/mL (by protocol).
In the case of `COc1ccc(C2c3c(n(C)c4ccccc34)C(=O)N2CC(=O)Nc2cccc(Cl)c2)cc1` (stereo unspecified), the survival is reported as inactive: 89%.
`Cc1nc2ccc(S(=O)(=O)N(CC(=O)Nc3ccc(F)cc3)Cc3ccccc3)cc2s1` was tested, and the survival was inactive: 113%.
With `COC(=O)c1sc2cccc(F)c2c1S(=O)(=O)N1CCN(c2cccc(C)c2)C(C)C1` (stereo unspecified) the survival was inactive: 87%.
With `COc1ccc(CCNc2ncnc3c2nnn3C)cc1` the survival was inactive: 113%.
For `CC1CCc2c(sc(NC(=O)CCCOc3ccccc3)c2C(N)=O)C1` (stereo unspecified), the survival was inactive: 91%.
In the case of `CCN1CCN(C(C)C(=O)NCc2ccc(OC)cc2)CC1` (stereo unspecified), the survival is reported as inactive: 92%.
`CCCOC(=O)c1c(NC(=O)c2cc3ccccc3c(=O)o2)sc2c1CCC(C)C2` (stereo unspecified) was tested, and the survival was inactive: 105%.
With `CCOc1ccc(-n2nc3ccc(NC(=O)Cc4ccccc4)cc3n2)cc1` the survival was inactive: 80%.
In the case of `CC(C)(C)OC(=O)N1CCC(c2c(C(=O)N3CCN(C(=O)c4ccco4)CC3)cnn2-c2ccc(F)cc2F)CC1`, the survival is reported as inactive: 129%.
`CCc1cccc(NC(=O)CN(C)S(=O)(=O)c2ccc3[nH]c4c(c3c2)CCCC4)c1` was tested, and the survival was inactive: 73%.
In the case of `Cc1cc(-c2ccc(C)c(S(=O)(=O)N3CCOc4ccc(Cl)cc43)c2)on1`, the survival is reported as inactive: 127%.
For `CCc1ccccc1-n1c(N)c(C(=O)OC)c2nc3ccccc3nc21`, the survival was inactive: 75%.
For `COc1ccc(-c2cn3c(C)c(C(=O)Nc4cc(C)cc(C)c4)sc3n2)cc1`, the survival was inactive: 73%.
`CCOC(=O)c1cnc2c(Cl)cc(Cl)cc2c1Nc1ccccc1OC` was tested, and the survival was inactive: 65%.
`COC(=O)c1ccc(Cn2nnc3c(=O)[nH]c(C4CCCN(S(=O)(=O)c5ccccc5Cl)C4)nc32)cc1` (stereo unspecified) was tested, and the survival was inactive: 78%.
For `Cc1ccc(-c2nnc3c4ccccc4c(C)nn23)cc1NC(=O)c1ccccc1`, the survival was inactive: 70%.
`COc1cc(NC(=O)c2nnn(CC(=O)Nc3cc(C)ccc3C)c2N)cc(OC)c1` was tested, and the survival was inactive: 87%.
For `C/C(=N\O)C(=O)C(CN1CCCCC1)CN1CCCCC1`, the survival was inactive: 103%.
For `CCOC(=O)CCc1c(C)nc2cc(-c3cc(OC)cc(OC)c3)[nH]n2c1=O`, the survival was inactive: 74%.
In the case of `O=C(Nc1ccc(OC(F)(F)F)cc1)c1noc2c1CCCC2`, the survival is reported as inactive: 86%.
In the case of `CCn1c(COc2ccccc2)nnc1SCC(=O)CC(=O)Nc1ccccc1OC`, the survival is reported as inactive: 100%.
`CCOc1cc(C(=O)Nc2ccc3c(c2)n(C)c(=O)c(=O)n3C)cc(OCC)c1OCC` was tested, and the survival was inactive: 81%.
`CCOc1ccc(-n2c(SCC(=O)Nc3ccc(CC)cc3)nc3c(oc4ccccc43)c2=O)cc1` was tested, and the survival was inactive: 85%.
`COc1cc(NC(=O)c2cc(-c3cccc(OC)c3)n[nH]2)cc(OC)c1` was tested, and the survival was inactive: 74%.
For `COC(=O)c1ccc(NC(=O)CC2C(=O)N(c3cccc(OC)c3)C(=O)N2C(C)C)cc1` (stereo unspecified), the survival was inactive: 78%.
For `O=C(NCCCN1CCN(c2cccc(Cl)c2)CC1)c1cnn(-c2ccc(F)cc2)c1-n1cccc1`, the survival was active: 0%.
With `O=C(NCCc1csc2nc(-c3ccccc3F)nn12)C(=O)Nc1cc(F)ccc1F` the survival was inactive: 63%.
For `CCOC(=O)c1c(C)oc2ncnc(Nc3cc(C)cc(C)c3)c12`, the survival was inactive: 74%.
With `Cc1ccc(N2CC(NC(=O)c3cccc(Cl)c3)CC2=O)cc1C` (stereo unspecified) the survival was inactive: 78%.
In the case of `COc1ccc(N(C(=O)c2ccc(C(C)(C)C)cc2)S(=O)(=O)c2ccc(Cl)cc2)cc1`, the survival is reported as inactive: 77%.
In the case of `COc1ccc(CNC(=O)c2cnn3c(C)c(Cc4c(F)cccc4Cl)c(C)nc23)cc1`, the survival is reported as inactive: 63%.
For `CCC1=C(c2ccc(C)cc2)S(=O)(=O)N=C1N1CCC(C(=O)NCc2ccc(N(C)C)cc2)CC1`, the survival was inactive: 68%.
With `CCN1C(=O)c2ccccc2Sc2ccc(NC(=O)Nc3cccc([N+](=O)[O-])c3C)cc21` the survival was inactive: 117%.
For `Cc1cccc(N2CCN(C(=O)c3cnc(N4CCCC4)nc3C)CC2)c1C`, the survival was inactive: 72%.
`COc1ccc(C2c3c(n(C)c4ccccc34)C(=O)N2CC(=O)Nc2cccc(Cl)c2C)cc1` (stereo unspecified) was tested, and the survival was inactive: 112%.
`CCCCOc1ccc(C(=O)NCc2nnnn2-c2ccc(C)c(C)c2)cc1` was tested, and the survival was inactive: 88%.
`COC(=O)c1c(NC(=O)/C(C#N)=C/c2ccccc2)sc2c1C(C(=O)OC)CC2` (stereo unspecified) was tested, and the survival was inactive: 82%.
`CC(=O)Nc1ccc(OC(=O)c2ccco2)cc1` was tested, and the survival was inactive: 106%.
For `CCc1ccccc1Nc1sc(C(=O)c2cccc(OC)c2)c(N)c1S(=O)(=O)c1ccccc1`, the survival was inactive: 82%.
With `CC1CCCN(C(=O)Cn2ncc3c([nH]c4ccccc43)c2=O)C1` (stereo unspecified) the survival was inactive: 81%.
`CCOC(=O)N1CCc2c(sc3c2c(=O)n(-c2ccc(CC)cc2)c(=O)n3C)C1` was tested, and the survival was inactive: 77%.
`CCc1ccccc1NC(=O)Cn1c(=O)ccc2cc(S(=O)(=O)N3CCCC3)ccc21` was tested, and the survival was inactive: 64%.
With `CCCSc1ncc(Cl)c(C(=O)N(Cc2ccc(Cl)cc2)Cc2ccco2)n1` the survival was inactive: 78%.
For `Cc1ccccc1OCC(=O)N1CCC(c2nc3ccccc3s2)CC1`, the survival was inactive: 65%.
For `COc1ccc(OCc2ccc(-c3nc(C#N)c(N4CCCCC4)o3)o2)cc1`, the survival was inactive: 72%.
`Cc1ccc(NC(=O)Cn2nc(N3CCN(c4ccccc4)CC3)ccc2=O)cc1F` was tested, and the survival was inactive: 84%.
For `COc1ccc(-n2c(=O)c3sc4ccccc4c3n(Cc3ccccc3C)c2=O)cc1OC`, the survival was inactive: 89%.
`COc1ccc(C(=O)c2c(N)c(C(=O)Nc3cccc(OC)c3)c3ccccn23)cc1` was tested, and the survival was inactive: 95%.
With `Cc1c(C(=O)N(C)C)sc2c1c(=O)n(-c1ccc(Cl)cc1)c(=O)n2CC(=O)C(C)(C)C` the survival was inactive: 75%.
In the case of `CCC(C(=O)O)n1ccc2cc(S(=O)(=O)N3CCCCC3)ccc21` (stereo unspecified), the survival is reported as inactive: 69%.
`CCC1CCCCN1S(=O)(=O)c1cc2c3c(c1)CC(=O)N3CCC2` (stereo unspecified) was tested, and the survival was inactive: 95%.
With `COc1ccc(S(=O)(=O)N2Cc3ccccc3CC2C(=O)Nc2ccc(C)cc2C)cc1OC` (stereo unspecified) the survival was inactive: 72%.
With `CCOC(=O)c1c(C)[nH]c(C)c1S(=O)(=O)N1CCC(C(=O)NCc2cccc(OC)c2)CC1` the survival was inactive: 63%.
`CC(=O)c1ccc(NC(=O)CCc2c(C)nn(-c3ccc(N4CCOCC4)nn3)c2C)cc1` was tested, and the survival was inactive: 80%.
For `Cc1cc(C)c(S(=O)(=O)NCCc2cc3ccc(C)c(C)c3[nH]c2=O)c(C)c1`, the survival was inactive: 74%.
For `O=c1c2sc3ccccc3c2n(Cc2cccc(Cl)c2)c(=O)n1Cc1ccco1`, the survival was inactive: 68%.
`Cc1ccc(N2CCN(C(=O)C3CCN(S(=O)(=O)c4ccc5c(c4)oc(=O)n5C)CC3)CC2C)cc1` (stereo unspecified) was tested, and the survival was inactive: 134%.
With `CCOc1ccccc1NC(=O)c1cnccn1` the survival was inactive: 104%.
For `Cc1cc(NC(=O)c2cc(-c3cccc(Cl)c3)on2)n(-c2ccccc2)n1`, the survival was inactive: 127%.
`Cc1ccccc1OCCn1c(=N)n(C(C)C)c2ccccc21` was tested, and the survival was inactive: 66%.
In the case of `Cc1cc(C)cc(-n2c(C)nc3cc(C(=O)O)ccc32)c1`, the survival is reported as inactive: 69%.
For `CCOc1ccc(C2=CC(c3cccc(Br)c3)n3c(nc4ccccc43)N2)cc1Cl` (stereo unspecified), the survival was inactive: 129%.
In the case of `COc1ccc(-c2noc(-c3ccc(NCc4cccnc4)c([N+](=O)[O-])c3)n2)cc1OC`, the survival is reported as inactive: 122%.
With `Cc1cccc(OCc2nc(CC(=O)Nc3ccc(C)c(C)c3)cs2)c1` the survival was inactive: 91%.
For `CCCn1c(CN2CCN(c3ccc(OC)cc3)CC2)nc2c1c(=O)[nH]c(=O)n2C`, the survival was inactive: 87%.
In the case of `COc1cc(-c2cc3n(C)c(C)c(CCC(=O)O)c(=O)n3n2)cc(OC)c1OC`, the survival is reported as inactive: 78%.
With `C/C=N/N(C)c1cc(=O)n(C)c(=O)[nH]1` the survival was inactive: 112%.
With `CCOc1ccc(NC(=O)C2CCN(C(=O)N3CC(C)Oc4ccc(Cl)cc43)CC2)cc1` (stereo unspecified) the survival was inactive: 106%.
`Cc1ccc(CNC(=O)CCC(=O)N2CC3CCCN3c3ccccc32)cc1` (stereo unspecified) was tested, and the survival was inactive: 82%.
For `Cc1cc2oc(C(=O)Nc3ccc(S(=O)(=O)N(C)Cc4ccccc4)cc3)cc(=O)c2cc1C`, the survival was inactive: 84%.
For `CC(C)CC(=O)Nc1nnc(S(=O)(=O)N(CC(C)C)c2ccccc2)s1`, the survival was inactive: 111%.
For `O=C(Nc1ccc2oc(-c3cc(Br)ccc3Cl)nc2c1)c1cc2ccccc2o1`, the survival was inactive: 102%.
`CCOc1ccccc1NC(=O)Cn1c(=O)n(CCC(=O)NCc2ccc3c(c2)OCO3)c(=O)c2ccccc21` was tested, and the survival was inactive: 153%.
For `COc1cc(OC)c(NC(=O)c2csc3c2CCC(C)C3)cc1Cl` (stereo unspecified), the survival was inactive: 129%.
For `COc1ccccc1CNC(=O)c1cc2cc3ccc(Cl)cc3nc2o1`, the survival was inactive: 84%.
In the case of `COc1ccc(CCNC(=O)CCc2c(C)nc3c(c(C)nn3-c3ccc(C)c(C)c3)c2C)cc1OC`, the survival is reported as inactive: 89%.
With `CCc1ccccc1N1CC(c2nc3ccccc3n2CCCOc2ccc(Cl)cc2)CC1=O` (stereo unspecified) the survival was inactive: 29%.
With `Cc1c(CNC2CCCCC2)c(C(=O)O)c(C)n1Cc1c(F)cccc1Cl` the survival was inactive: 82%.
For `Cc1ccc(NC(=O)CCCn2c(=O)c3cccn3c3ccccc32)c(Cl)c1`, the survival was inactive: 59%.
`COc1ccccc1N1CCN(c2ccc(NC(=O)c3ccc(C)cc3)cc2C(=O)O)CC1` was tested, and the survival was inactive: 72%.
For `CCC1(C)Cc2ccccc2-c2[nH]c(=S)[nH]c(=O)c21` (stereo unspecified), the survival was inactive: 111%.
With `O=C(CCOc1ccccc1)N(Cc1cccnc1)c1nc2c(F)cc(F)cc2s1` the survival was inactive: 99%.
`CCOc1ccc(NC(=O)C(CC)n2c(=O)c(-c3ccccc3NC(C)=O)nc3ccccc32)cc1` (stereo unspecified) was tested, and the survival was inactive: 64%.
`COc1ccccc1OCCSc1nc(-c2ccc(C(C)(C)C)cc2)nc2cc(=O)[nH]n12` was tested, and the survival was inactive: 22%.
With `Cc1ccc(CNC(=O)Cn2cc(S(=O)(=O)Cc3ccccc3Cl)c3ccccc32)cc1` the survival was inactive: 66%.
With `COc1ccc(C(=O)Nc2cc3c(cc2C(=O)c2ccccc2Cl)OCCO3)cc1` the survival was inactive: 98%.
